These are yes or no findings as the source states them, for the method shown. In cells and extracts the contact can be indirect. Some results given as binding are weak or reduced against the parent protein; the word gives no strength. Blank lines part the entries; values can stand above or below the substance they belong to.
Columns and labels:
[1] = target: C-terminally Myc-tagged mouse nucleolin (mouse) (UniProt P09405); test: co-IP; COS7 co-transfected; total membrane (pellet, insoluble) fraction immunoprecipitated with anti-Myc (nucleolin) or anti-HA (control), blotted with specific ErbB antibodies
[2] = target: C-terminally Myc-tagged mouse nucleolin (mouse) (UniProt P09405); test: co-IP; COS7 co-transfected; cell lysates immunoprecipitated with anti-Myc, blotted with anti-ErbB4; 2 h at 4°C, washed with HNTG
Myc-TGFβIIR = Myc-TGFβIIR (UniProt P37173); test: as above
ErbB4-JMa-cyt2 = ErbB4-JMa-cyt2 (UniProt Q15303); test: co-IP; COS7 co-transfected with ErbB4 isoforms and Myc-GFP-Nucleolin; cell lysates immunoprecipitated with anti-ErbB4, blotted with anti-GFP or anti-Myc
ErbB4-JMb-cyt1 = ErbB4-JMb-cyt1 (UniProt Q15303); test: as above
ErbB4-JMa-cyt1 = ErbB4-JMa-cyt1 (UniProt Q15303); test: as above
ErbB4-JMb-cyt2 = ErbB4-JMb-cyt2 (UniProt Q15303); test: as above
[3] = target: endogenous nucleolin of SKBR3 breast cancer cells (human (endogenous in SKBR3)) (UniProt P19338); test: co-IP; SKBR3 cell lysates, endogenous proteins; immunoprecipitated with anti-nucleolin or anti-ErbB2, blotted with anti-ErbB2 or anti-nucleolin

Sequences of proteins named here, by UniProt entry; tags and fusion partners are left off. A change or cut given only in a name is not applied to a line headed by its entry. A line that says so, or that is headed by a name, gives the form on record, which may keep a tag or linker. Residues count along the entry.
UniProt P09405: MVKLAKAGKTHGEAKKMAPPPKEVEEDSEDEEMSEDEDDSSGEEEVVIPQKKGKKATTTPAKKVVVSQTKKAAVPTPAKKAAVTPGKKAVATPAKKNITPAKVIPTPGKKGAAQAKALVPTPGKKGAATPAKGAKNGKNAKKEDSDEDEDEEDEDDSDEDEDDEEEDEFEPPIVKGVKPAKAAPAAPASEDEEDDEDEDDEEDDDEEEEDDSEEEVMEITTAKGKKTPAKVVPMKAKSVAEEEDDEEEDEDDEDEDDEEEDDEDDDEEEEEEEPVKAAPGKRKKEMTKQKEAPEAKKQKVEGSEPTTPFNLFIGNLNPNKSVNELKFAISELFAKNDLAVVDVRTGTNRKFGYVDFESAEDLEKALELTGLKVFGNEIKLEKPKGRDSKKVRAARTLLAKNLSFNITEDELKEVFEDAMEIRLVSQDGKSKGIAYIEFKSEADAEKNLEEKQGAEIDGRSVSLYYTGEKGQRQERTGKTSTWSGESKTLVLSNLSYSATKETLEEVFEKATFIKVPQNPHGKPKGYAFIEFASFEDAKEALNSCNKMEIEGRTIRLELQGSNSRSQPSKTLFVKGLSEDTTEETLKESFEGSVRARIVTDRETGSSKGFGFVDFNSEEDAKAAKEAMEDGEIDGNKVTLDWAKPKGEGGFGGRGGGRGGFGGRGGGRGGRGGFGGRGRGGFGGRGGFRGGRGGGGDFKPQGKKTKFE
ErbB4-JMa-cyt1 (Q15303, residues 26-1308): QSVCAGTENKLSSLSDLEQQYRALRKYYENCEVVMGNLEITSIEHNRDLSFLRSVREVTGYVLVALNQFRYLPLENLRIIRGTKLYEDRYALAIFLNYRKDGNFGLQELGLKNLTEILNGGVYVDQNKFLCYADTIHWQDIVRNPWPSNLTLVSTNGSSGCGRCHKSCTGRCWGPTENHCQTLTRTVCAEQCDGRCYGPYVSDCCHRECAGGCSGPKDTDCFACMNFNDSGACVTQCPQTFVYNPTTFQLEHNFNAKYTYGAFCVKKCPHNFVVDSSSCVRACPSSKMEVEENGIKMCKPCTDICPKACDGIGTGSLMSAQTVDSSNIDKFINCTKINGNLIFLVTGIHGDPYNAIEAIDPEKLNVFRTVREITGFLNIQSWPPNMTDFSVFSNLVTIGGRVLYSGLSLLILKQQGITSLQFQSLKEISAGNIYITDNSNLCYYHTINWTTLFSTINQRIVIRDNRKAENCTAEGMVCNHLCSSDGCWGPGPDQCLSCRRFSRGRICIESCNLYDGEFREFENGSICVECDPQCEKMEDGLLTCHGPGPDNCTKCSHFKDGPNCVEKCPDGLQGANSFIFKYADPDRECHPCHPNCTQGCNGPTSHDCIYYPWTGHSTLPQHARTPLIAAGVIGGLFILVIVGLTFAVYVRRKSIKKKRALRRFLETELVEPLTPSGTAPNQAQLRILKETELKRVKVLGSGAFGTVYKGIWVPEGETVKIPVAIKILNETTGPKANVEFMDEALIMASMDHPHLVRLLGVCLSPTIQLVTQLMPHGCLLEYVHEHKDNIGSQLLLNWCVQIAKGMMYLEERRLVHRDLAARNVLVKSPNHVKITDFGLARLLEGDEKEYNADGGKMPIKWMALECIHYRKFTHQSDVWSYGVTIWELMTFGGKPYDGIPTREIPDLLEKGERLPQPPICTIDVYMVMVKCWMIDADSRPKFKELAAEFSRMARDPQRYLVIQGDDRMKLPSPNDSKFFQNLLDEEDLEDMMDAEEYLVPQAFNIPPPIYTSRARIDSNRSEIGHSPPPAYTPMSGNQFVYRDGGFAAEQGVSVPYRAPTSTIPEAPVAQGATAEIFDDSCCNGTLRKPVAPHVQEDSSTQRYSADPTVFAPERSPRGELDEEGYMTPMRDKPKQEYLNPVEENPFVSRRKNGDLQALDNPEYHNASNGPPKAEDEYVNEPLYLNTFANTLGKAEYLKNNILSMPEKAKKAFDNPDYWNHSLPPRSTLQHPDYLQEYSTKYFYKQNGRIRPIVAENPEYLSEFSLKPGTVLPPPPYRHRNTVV
ErbB4-JMa-cyt2 (Q15303, form named): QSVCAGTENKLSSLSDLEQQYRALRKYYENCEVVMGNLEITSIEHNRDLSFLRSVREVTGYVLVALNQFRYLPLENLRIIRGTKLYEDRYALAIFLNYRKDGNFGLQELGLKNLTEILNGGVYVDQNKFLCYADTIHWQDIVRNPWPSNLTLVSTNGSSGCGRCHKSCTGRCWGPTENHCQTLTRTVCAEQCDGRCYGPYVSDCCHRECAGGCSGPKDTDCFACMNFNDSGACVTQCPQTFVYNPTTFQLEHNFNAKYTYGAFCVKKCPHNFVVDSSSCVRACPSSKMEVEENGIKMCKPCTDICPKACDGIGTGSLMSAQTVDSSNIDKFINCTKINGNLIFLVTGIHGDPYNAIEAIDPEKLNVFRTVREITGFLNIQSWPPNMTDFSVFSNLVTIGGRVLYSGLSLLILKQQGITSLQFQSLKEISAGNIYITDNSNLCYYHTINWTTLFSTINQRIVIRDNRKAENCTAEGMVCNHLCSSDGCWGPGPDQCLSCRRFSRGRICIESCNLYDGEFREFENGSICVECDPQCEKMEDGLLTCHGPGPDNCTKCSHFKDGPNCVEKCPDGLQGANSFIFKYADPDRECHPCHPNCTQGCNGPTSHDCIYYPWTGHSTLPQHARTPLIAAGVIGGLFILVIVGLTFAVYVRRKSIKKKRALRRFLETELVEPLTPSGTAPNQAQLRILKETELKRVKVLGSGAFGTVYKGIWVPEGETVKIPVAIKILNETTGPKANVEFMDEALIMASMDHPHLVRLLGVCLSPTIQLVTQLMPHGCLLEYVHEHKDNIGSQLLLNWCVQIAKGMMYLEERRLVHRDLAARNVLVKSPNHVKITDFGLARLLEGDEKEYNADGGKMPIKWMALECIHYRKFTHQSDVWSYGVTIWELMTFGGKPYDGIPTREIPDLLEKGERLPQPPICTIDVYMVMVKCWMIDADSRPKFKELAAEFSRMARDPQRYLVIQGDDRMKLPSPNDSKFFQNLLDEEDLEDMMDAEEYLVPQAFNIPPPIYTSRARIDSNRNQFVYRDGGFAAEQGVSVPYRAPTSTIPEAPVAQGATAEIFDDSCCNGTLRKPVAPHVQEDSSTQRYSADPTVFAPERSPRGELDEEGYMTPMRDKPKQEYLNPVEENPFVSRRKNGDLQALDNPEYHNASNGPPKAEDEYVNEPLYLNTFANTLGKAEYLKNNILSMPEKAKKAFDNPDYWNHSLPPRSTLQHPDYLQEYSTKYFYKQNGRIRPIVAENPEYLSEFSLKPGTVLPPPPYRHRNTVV
ErbB4-JMb-cyt1 (Q15303, form named): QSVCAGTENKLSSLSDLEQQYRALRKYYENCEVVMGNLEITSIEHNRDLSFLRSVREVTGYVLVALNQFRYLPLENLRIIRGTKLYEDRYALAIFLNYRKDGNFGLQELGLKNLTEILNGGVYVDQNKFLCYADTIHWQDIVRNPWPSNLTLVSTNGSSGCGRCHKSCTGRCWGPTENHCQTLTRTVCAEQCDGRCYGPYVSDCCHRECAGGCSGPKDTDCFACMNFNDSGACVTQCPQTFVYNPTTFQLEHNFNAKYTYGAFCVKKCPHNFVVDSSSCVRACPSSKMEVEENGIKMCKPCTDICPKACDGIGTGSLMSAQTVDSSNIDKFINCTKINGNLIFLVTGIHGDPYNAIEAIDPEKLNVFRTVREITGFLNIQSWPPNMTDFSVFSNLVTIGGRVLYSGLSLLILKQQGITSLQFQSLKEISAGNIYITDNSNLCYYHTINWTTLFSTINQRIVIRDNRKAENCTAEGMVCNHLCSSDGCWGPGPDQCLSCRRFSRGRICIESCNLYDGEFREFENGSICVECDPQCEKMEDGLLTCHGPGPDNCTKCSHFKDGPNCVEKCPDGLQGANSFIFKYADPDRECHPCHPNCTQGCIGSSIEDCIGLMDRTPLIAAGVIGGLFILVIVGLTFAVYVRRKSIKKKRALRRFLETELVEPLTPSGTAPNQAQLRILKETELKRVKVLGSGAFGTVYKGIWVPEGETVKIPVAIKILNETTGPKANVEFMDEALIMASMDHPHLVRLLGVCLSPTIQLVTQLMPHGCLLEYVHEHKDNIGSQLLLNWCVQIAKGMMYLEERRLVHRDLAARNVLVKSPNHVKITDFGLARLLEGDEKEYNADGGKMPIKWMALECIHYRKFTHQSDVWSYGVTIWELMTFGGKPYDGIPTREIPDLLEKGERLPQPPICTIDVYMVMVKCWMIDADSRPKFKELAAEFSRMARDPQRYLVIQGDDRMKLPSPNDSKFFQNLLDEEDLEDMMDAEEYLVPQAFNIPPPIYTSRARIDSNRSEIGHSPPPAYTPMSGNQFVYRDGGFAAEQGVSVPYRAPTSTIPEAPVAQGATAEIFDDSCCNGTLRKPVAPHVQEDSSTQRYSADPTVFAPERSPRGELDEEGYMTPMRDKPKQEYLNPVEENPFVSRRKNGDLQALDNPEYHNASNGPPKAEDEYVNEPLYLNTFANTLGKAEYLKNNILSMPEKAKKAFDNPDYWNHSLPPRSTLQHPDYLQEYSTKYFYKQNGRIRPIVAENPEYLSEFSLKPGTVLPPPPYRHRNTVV
ErbB4-JMb-cyt2 (Q15303, form named): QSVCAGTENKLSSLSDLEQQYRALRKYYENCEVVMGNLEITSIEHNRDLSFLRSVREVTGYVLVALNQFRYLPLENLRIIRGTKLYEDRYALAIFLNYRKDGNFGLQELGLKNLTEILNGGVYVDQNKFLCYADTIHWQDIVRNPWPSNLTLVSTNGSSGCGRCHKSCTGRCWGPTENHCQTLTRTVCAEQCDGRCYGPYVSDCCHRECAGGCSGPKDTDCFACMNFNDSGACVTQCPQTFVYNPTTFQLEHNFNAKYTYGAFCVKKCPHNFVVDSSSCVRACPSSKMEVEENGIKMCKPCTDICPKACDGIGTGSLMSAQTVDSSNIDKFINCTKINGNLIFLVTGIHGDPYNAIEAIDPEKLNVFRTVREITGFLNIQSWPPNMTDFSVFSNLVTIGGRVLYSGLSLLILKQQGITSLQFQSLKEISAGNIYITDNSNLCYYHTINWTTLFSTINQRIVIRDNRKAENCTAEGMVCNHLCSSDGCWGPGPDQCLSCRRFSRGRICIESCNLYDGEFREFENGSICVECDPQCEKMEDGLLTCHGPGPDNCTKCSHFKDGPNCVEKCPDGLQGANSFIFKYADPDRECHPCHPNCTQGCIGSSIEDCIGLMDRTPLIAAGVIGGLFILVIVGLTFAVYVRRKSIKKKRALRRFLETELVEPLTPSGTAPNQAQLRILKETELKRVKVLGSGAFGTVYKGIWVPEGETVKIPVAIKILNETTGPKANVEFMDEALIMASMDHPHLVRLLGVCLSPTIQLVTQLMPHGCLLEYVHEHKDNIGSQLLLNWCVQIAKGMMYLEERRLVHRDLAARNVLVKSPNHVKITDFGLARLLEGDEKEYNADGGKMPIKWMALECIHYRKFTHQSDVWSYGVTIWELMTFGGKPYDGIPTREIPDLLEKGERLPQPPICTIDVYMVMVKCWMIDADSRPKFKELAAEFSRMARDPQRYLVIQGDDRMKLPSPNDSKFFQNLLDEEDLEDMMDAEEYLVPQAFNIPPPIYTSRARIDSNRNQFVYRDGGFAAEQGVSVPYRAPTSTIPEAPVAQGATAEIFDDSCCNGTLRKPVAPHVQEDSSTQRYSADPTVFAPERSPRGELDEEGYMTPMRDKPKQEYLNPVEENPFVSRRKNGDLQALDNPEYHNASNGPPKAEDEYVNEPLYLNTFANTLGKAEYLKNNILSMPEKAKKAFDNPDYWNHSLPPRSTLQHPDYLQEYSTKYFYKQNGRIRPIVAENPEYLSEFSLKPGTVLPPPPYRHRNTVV
UniProt P19338: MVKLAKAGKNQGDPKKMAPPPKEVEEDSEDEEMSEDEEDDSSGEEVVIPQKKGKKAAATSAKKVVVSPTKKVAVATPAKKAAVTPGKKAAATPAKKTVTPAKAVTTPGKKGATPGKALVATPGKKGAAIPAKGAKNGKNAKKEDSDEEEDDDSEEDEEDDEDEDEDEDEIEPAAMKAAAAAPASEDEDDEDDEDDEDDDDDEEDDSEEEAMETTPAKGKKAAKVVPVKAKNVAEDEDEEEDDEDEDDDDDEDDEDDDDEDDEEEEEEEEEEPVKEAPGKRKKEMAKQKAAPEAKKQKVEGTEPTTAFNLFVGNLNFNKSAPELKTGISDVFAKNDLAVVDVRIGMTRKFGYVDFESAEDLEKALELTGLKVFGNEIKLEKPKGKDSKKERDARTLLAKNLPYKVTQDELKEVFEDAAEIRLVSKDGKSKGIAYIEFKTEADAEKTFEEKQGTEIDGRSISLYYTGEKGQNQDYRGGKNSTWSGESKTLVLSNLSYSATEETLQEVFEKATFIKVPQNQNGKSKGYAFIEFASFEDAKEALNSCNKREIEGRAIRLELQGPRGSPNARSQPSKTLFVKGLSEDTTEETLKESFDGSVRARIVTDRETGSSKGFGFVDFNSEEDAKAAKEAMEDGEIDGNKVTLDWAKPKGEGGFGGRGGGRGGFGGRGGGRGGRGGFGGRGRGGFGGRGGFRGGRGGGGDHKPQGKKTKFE

Substance: ErbB3 (from UniProt P21860 20-1342) (receptor)
binding [1]: binds

Substance: ErbB4 (expression vector, isoform not named) (from UniProt Q15303 26-1308) (receptor)
binding [1]: binds
binding [2]: binds
binding (Myc-TGFβIIR): no binding

Substance: GFP-fused Nucleolin-Myc (from UniProt P09405 1-707)
binding (ErbB4-JMa-cyt2): binds
binding (ErbB4-JMb-cyt1): binds
binding (ErbB4-JMa-cyt1): binds
binding (ErbB4-JMb-cyt2): binds

Substance: endogenous ErbB2 of SKBR3 breast cancer cells (from UniProt P04626 23-1255) (receptor)
binding [3]: binds

More lines, now with the values ahead:

binding [1]: binds
Substance: ErbB1 (from UniProt P00533 25-1210) (receptor)

binding [1]: binds
Substance: ErbB2 (from UniProt P04626 23-1255) (receptor)
